# Part of at least one peptide drawing is inferred or uncertain, most often the ends.
# Assay: Rheological properties before and after DMEM treatment
# Assay type: physicochemical
# Experimental: Effects of Dulbecco's modified Eagle's medium (DMEM) (pH 7.4) on rheological properties of IEIK13 (SEQ ID NO:3), KLD12 (SEQ ID NO:2), and RADA16 (SEQ ID NO:1) compositions were evaluated using a rheometer (AR500, TA Instruments) with 40 mm plates. DMEM is a cell culture medium that contains 6.4 g/L of NaCl, 3.4 g/L NaHCO3 (sodium bicarbonate), minor amounts of other salts, various amino acids, and 4.5 g/L of glucose. The pH of DMEM is 7.2±0.2 and the osmolality is 335±30 mOsm/Kg H2O. DMEM is close to human physiological fluids, for example, blood.
# Before being mixed with the DMEM solution, 1% peptide compositions were kept in 4° C. for at least 48 hours. To perform experiments, 1 mL of peptide composition was gently pipetted and placed on the plate of the rheometer. 2 mL of the DMEM solution was gently added around the peptide composition. The peptide composition was treated with the DMEM for two minutes, then medium was removed, and the plates were placed at a measuring geometry gap at around 450 μm. […]
# Using a DHR-1 rheometer (TA Instruments), rheological properties of peptide compositions at selected concentrations were measured before and after the DMEM treatment. […]
# Using a DHR-1 rheometer (TA Instruments), rheological properties of peptide compositions at selected ion strengths were evaluated 10 mins after the DMEM treatment. […]
compound,measurement,setting,value
"CC[C@H](C)[C@H](N)C(=O)N[C@@H](CCC(=O)O)C(=O)N[C@H](C(=O)N[C@@H](CCCCN)C(=O)N[C@H](C(=O)N[C@@H](CCC(=O)O)C(=O)N[C@H](C(=O)N[C@@H](CCCCN)C(=O)N[C@H](C(=O)N[C@@H](CCC(=O)O)C(=O)N[C@H](C(=O)N[C@@H](CCCCN)C(=O)N[C@H](C(=O)O)[C@@H](C)CC)[C@@H](C)CC)[C@@H](C)CC)[C@@H](C)CC)[C@@H](C)CC)[C@@H](C)CC [IEIK13, Ile-Glu-Ile-Lys-Ile-Glu-Ile-Lys-Ile-Glu-Ile-Lys-Ile]",Change of rheological properties with DMEM treatment,"selected NaCl ionic strengths, RADA16 statement follows 0.9 M or higher NaCl (no gelation)",increased with the DMEM treatments
same,Rheological properties with DMEM treatment and/or pH elevation,"selected concentrations, storage moduli at 1 rad/sec, 1 Pa",increased with the DMEM treatment and/or pH elevation
